{
  "source": "patent US20250115571A1",
  "about": "“OXOPIPERAZINE DERIVATIVES” (Inthera Bioscience AG, priority 2017, published 2025)",
  "note": "At least one read-out could not be matched to a standard name with certainty. Marks after values point to notes of the source that are not given here.",
  "data": [
    {"test_system": "CaSki cells", "experiment": "Colony Formation Assay (CFA), 14 days", "type": "cell-based, human", "conditions": "colony formation assay, class by % inhibition at 0.7, 6 or 50 μM", "values": [
      {"smiles": "CCC[C@@H](C(=O)N1CCC(CC(N)=O)CC1)N1CCN[C@@H](CC(C)C)C1=O", "note": "[Compound 131, (1-{(S)-2-[(S)-3-Isobutyl-2-oxo-1-piperazinyl]valeryl}-4-piperidyl)acetamide]", "Activity (inhibition of colony formation)": "+* (greater than 0% but less than or equal to 50% inhibition of colony formation at a concentration of 50 μM)"},
      {"smiles": "CC(C)C[C@@H]1NCCN([C@@H](CC(C)C)C(=O)N2CCC3(CC2)CC(N(C)C)C3)C1=O", "note": "[Compound 239, (S)-1-[(S)-1-({2-(Dimethylamino)-7-aza-7-spiro[3.5]nonyl}car-bonyl)-3-methylbutyl]-3-isobutyl-2-piperazinone]", "Activity (inhibition of colony formation)": "*+ (greater than 0% but less than or equal to 50% inhibition of colony formation at a concentration of 0.7 μM)"},
      {"smiles": "CCCc1cnc(CC2CCN(C(=O)[C@H](CC(C)C)N3CCN[C@@H](CC(C)C)C3=O)CC2)n1C", "note": "[Compound 31, (S)-1-[(S)-3-Methyl-1-({4-[(1-methyl-5-propyl-1H-imidazol-2-yl)methyl]-1-piperidyl}car-bonyl)butyl]-3-isobutyl-2-piperazinone]", "Activity (inhibition of colony formation)": "+++ (more than 90% inhibition of colony formation at a concentration of 50 μM)"},
      {"smiles": "CC(C)C[C@@H]1NCCN([C@@H](CC(C)C)C(=O)N2CCC3(CCCNC3=O)CC2)C1=O", "note": "[Compound 97, (S)-1-[(S)-1-{(2,9-Diazaspiro[5.5]un-decan-9-oyl)carbonyl}-3-methylbutyl]-3-isobutyl-2-piperazinone]", "Activity (inhibition of colony formation)": "++ (more than 50% inhibition of colony formation at a concentration of 50 μM)"},
      {"smiles": "CC(C)C[C@@H]1NCCN([C@@H](CC(C)C)C(=O)N2CCC(CCN(C)Cc3ccc(F)cc3)CC2)C1=O", "note": "[Compound 54, (S)-1-[(S)-1-{[4-(2-{N-Methyl[(p-fluorophenyl)meth-yl]amino}ethyl)-1-piperidyl]carbonyl}-3-methylbutyl]-3-isobutyl-2-piperazinone]", "Activity (inhibition of colony formation)": "++++ (more than 90% inhibition of colony formation at a concentration of 6 μM)"},
      {"smiles": "CC(=O)N1CCN([C@@H](CC(C)C)C(=O)N2CCC(CCN3CCCC3)CC2)C(=O)[C@@H]1CC(C)C", "note": "[Compound 249, (S)-1-[(S)-3-Methyl-1-({4-[2-(1-pyrrolidinyl)ethyl]-1-piperidyl}car-bonyl)butyl]-4-acetyl-3-isobutyl-2-piperazinone]", "Activity (inhibition of colony formation)": "++++ (more than 90% inhibition of colony formation at a concentration of 6 μM)"},
      {"smiles": "CC(C)C[C@@H]1NCCN([C@@H](CC(C)C)C(=O)N2CCC(CCO)CC2)C1=O", "note": "[Compound 44, (S)-1-[(S)-1-{[4-(2-Hydroxyethyl)-1-piperidyl]carbonyl}-3-methylbutyl]-3-isobutyl-2-piperazinone]", "Activity (inhibition of colony formation)": "++ (more than 50% inhibition of colony formation at a concentration of 50 μM)"},
      {"smiles": "COC(=O)N1CCN([C@@H](CC(C)C)C(=O)N2CCC(CCN3CCCC3)CC2)C(=O)[C@@H]1CC(C)C", "note": "[Compound 276, Methyl (S)-4-[(S)-3-methyl-1-({4-[2-(1-pyrrolidinyl)ethyl]-1-piperidyl}car-bonyl)butyl]-2-isobutyl-3-oxo-1-piperazinecar-boxylate]", "Activity (inhibition of colony formation)": "++++ (more than 90% inhibition of colony formation at a concentration of 6 μM)"},
      {"smiles": "COC(=O)CC1CCN(C(=O)[C@H](CC(C)C)N2CCN[C@@H](CC(C)C)C2=O)CC1", "note": "[Compound 4, Methyl (1-{(S)-2-[(S)-3-isobutyl-2-oxo-1-piperazinyl]-4-methylvaleryl}-4-piperidyl)acetate]", "Activity (inhibition of colony formation)": "++ (more than 50% inhibition of colony formation at a concentration of 50 μM)"},
      {"smiles": "CC(C)C[C@H]1C(=O)N([C@@H](CC(C)C)C(=O)N2CCC3(C[C@@H]2C)OCC(CN2CCCC2)CO3)CCN1C", "note": "(stereo partly drawn) [Compound 273, (S)-1-[(S)-1-({(S)-8-Methyl-3-[(1-pyrrolidinyl)methyl]-1,5-dioxa-9-aza-9-spiro[5.5]un-decyl}carbonyl)-3-methylbutyl]-3-isobutyl-4-methyl-2-piperazinone]", "Activity (inhibition of colony formation)": "++++ (more than 90% inhibition of colony formation at a concentration of 6 μM)"},
      {"smiles": "CCC1CCN(CCC2CCN(C(=O)[C@H](CC(C)C)N3CCN[C@@H](CC(C)C)C3=O)CC2)CC1", "note": "[Compound 241, (S)-1-[(S)-1-({4-[2-(4-Ethyl-1-piperidyl)ethyl]-1-piperidyl}carbonyl)-3-methylbutyl]-3-isobutyl-2-piperazinone]", "Activity (inhibition of colony formation)": "++++ (more than 90% inhibition of colony formation at a concentration of 6 μM)"},
      {"smiles": "CC(C)C[C@@H]1NCCN([C@@H](CC(C)C)C(=O)N2CCC(Cc3nccn3C3CC3)CC2)C1=O", "note": "[Compound 18, (S)-1-[(S)-1-({4-[(1-Cyclopropyl-1H-imidazol-2-yl)methyl]-1-piperidyl}carbonyl)-3-methylbutyl]-3-isobutyl-2-piperazinone]", "Activity (inhibition of colony formation)": "++ (more than 50% inhibition of colony formation at a concentration of 50 μM)"},
      {"smiles": "CC(C)C[C@@H](C(=O)N1CCC(CCN2CCCC2)CC1)N1CCN(C2CC2)[C@@H](CC(C)C)C1=O", "note": "[Compound 247, (S)-1-[(S)-3-Methyl-1-({4-[2-(1-pyrrolidineyl)ethyl]-1-piperidyl}car-bonyl)butyl]-4-cyclopropyl-3-isobutyl-2-piperazinone]", "Activity (inhibition of colony formation)": "++++ (more than 90% inhibition of colony formation at a concentration of 6 μM)"},
      {"smiles": "CC(C)C[C@@H]1NCCN([C@@H](CC(C)C)C(=O)N2CCC([C@@]3(C)NC(=O)NC3=O)CC2)C1=O", "note": "[Compound 72, (R)-5-(1-{(S)-2-[(S)-3-Isobutyl-2-oxo-1-piperazinyl]-4-methylvaleryl}-4-piperidyl)-5-methyl-2,4-imidazolidinedione]", "Activity (inhibition of colony formation)": "+* (greater than 0% but less than or equal to 50% inhibition of colony formation at a concentration of 50 μM)"},
      {"smiles": "CCc1cnc(CC2CCN(C(=O)[C@H](CC(C)C)N3CCN[C@@H](CC(C)C)C3=O)CC2)n1C", "note": "[Compound 80, (S)-1-[(S)-1-({4-[(5-Ethyl-1-methyl-1H-imidazol-2-yl)methyl]-1-piperidyl}carbonyl)-3-methylbutyl]-3-isobutyl-2-piperazinone]", "Activity (inhibition of colony formation)": "+++ (more than 90% inhibition of colony formation at a concentration of 50 μM)"},
      {"smiles": "CC(C)C[C@@H]1NCCN([C@@H](CC(C)C)C(=O)N2CCC(Cc3nc4c(n3C)CCCC4)CC2)C1=O", "note": "[Compound 60, (S)-1-[(S)-3-Methyl-1-({4-[(1-methyl-1,3-diaza-4,5,6,7-tetrahydro-1H-inden-2-yl)methyl]-1-piperidyl}car-bonyl)butyl]-3-isobutyl-2-piperazinone]", "Activity (inhibition of colony formation)": "+++ (more than 90% inhibition of colony formation at a concentration of 50 μM)"}
    ]},
    {"test_system": "CaSki cells", "experiment": "Colony Formation Assay (CFA), 14 days", "type": "cell-based, human", "conditions": "inhibition of colony formation, 14 days, classes at 6, 50 or 0.7 μM", "values": [
      {"smiles": "CCn1ccnc1CC1CCN(C(=O)[C@H](CC(C)C)N2CCN[C@@H](CC(C)C)C2=O)CC1", "note": "[Compound 155, (S)-1-[(S)-1-({4-[(1-Ethyl-1H-imidazol-2-yl)methyl]-1-piperidyl}carbonyl)-3-methylbutyl]-3-isobutyl-2-piperazinone]", "Activity": "+++ (more than 90% inhibition of colony formation at a concentration of 50 μM)"},
      {"smiles": "CC(C)C[C@@H]1NCCN([C@@H](CC(C)C)C(=O)N2CCC3(C[C@@H]2C)OCC(CN2CCC(F)(F)C2)CO3)C1=O", "note": "(stereo partly drawn) [Compound 319, (S)-1-[(S)-1-({(S)-3-[(3,3-Difluoro-1-pyrrolidinyl)methyl]-8-methyl-1,5-dioxa-9-aza-9-spiro[5.5]undecyl}car-bonyl)-3-methylbutyl]-3-isobutyl-2-piperazinone]", "Activity": "++++ (more than 90% inhibition of colony formation at a concentration of 6 μM)"},
      {"smiles": "CC(C)C[C@@H]1NCCN([C@@H](CC(C)C)C(=O)N2CCC(COc3ccccc3CN(C)C)CC2)C1=O", "note": "[Compound 217, (S)-1-[(S)-1-{[4-({o-[(Dimethyl-amino)meth-yl]phenoxy}methyl)-1-piperidyl]carbonyl}-3-methylbutyl]-3-isobutyl-2-piperazinone]", "Activity": "+++ (more than 90% inhibition of colony formation at a concentration of 50 μM)"},
      {"smiles": "CC(C)C[C@@H]1NCCN([C@@H](CC(C)C)C(=O)N2CCC(COc3cccc(CN(C)C)c3)CC2)C1=O", "note": "[Compound 213, (S)-1-[(S)-1-{[4-({m-[(Dimethyl-amino)meth-yl]phenoxy}methyl)-1-piperidyl]carbonyl}-3-methylbutyl]-3-isobutyl-2-piperazinone]", "Activity": "+++ (more than 90% inhibition of colony formation at a concentration of 50 μM)"},
      {"smiles": "CC(C)C[C@@H]1NCCN([C@@H](CC(C)C)C(=O)N2CCC3(C[C@@H]2C)OCC(CN2CCOCC2)CO3)C1=O", "note": "(stereo partly drawn) [Compound 314, (S)-1-[(S)-1-({(S)-8-Methyl-3-(morpholinomethyl)-1,5-dioxa-9-aza-9-spiro[5.5]undecyl}car-bonyl)-3-methylbutyl]-3-isobutyl-2-piperazinone]", "Activity": "++++ (more than 90% inhibition of colony formation at a concentration of 6 μM)"},
      {"smiles": "CC(C)C[C@@H]1NCCN([C@@H](CC(C)C)C(=O)N2CCC(Cc3nccn3CC3CC3)CC2)C1=O", "note": "[Compound 154, (S)-1-[(S)-1-[(4-{[1-(Cyclopropylmethyl)-1H-imidazol-2-yl]methyl}-1-piperidyl)carbonyl]-3-methylbutyl]-3-isobutyl-2-piperazinone]", "Activity": "++ (more than 50% inhibition of colony formation at a concentration of 50 μM)"},
      {"smiles": "CC(C)C[C@@H]1NCCN([C@@H](CC(C)C)C(=O)N2CCC(COc3ccc(Cl)cc3)CC2)C1=O", "note": "[Compound 170, (S)-1-[(S)-1-({4-[(p-Chlorophenoxy)methyl]-1-piperidyl}carbonyl)-3-methylbutyl]-3-isobutyl-2-piperazinone]", "Activity": "+++ (more than 90% inhibition of colony formation at a concentration of 50 μM)"},
      {"smiles": "CCCn1ccnc1CC1CCN(C(=O)[C@H](CC(C)C)N2CCN[C@@H](CC(C)C)C2=O)CC1", "note": "[Compound 157, (S)-1-[(S)-3-Methyl-1-({4-[(1-propyl-1H-imidazol-2-yl)methyl]-1-piperidyl}car-bonyl)butyl]-3-isobutyl-2-piperazinone]", "Activity": "+++ (more than 90% inhibition of colony formation at a concentration of 50 μM)"},
      {"smiles": "COC(=O)Cc1ccc(OCC2CCN(C(=O)[C@H](CC(C)C)N3CCN(C(C)=O)[C@@H](CC(C)C)C3=O)CC2)cc1", "note": "[Compound 192, Methyl {p-[(1-{(S)-2-[(S)-4-acetyl-3-isobutyl-2-oxo-1-piperazinyl]-4-methylvaleryl}-4-piperidyl)meth-oxy]phenyl}acetate]", "Activity": "+++ (more than 90% inhibition of colony formation at a concentration of 50 μM)"}
    ]}
  ]
}
